# Experimental data: the supplement of paper PMC10338343
# ± gives the standard deviation. The entries are a selection whose mix differs from that of the whole data set.
# Tested on: MIWI (PIWIL1) piRISC loaded with L1MC piRNA (30 nt)
# Test: pre-steady-state target cleavage rate (min^-1); MIWI and MILI are mouse PIWI proteins and EfPiwi is from a freshwater sponge; tags in brackets are library labels; higher = faster piRNA-guided slicing of the target
# Details: guide: L1MC piRNA 5'p-UAACUAAAUACUAUGCAAGCUGUAGGUCCU
# Procedure, shortened: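 Cleave-'n-Seq measured uncleaved targets by sequencing after a transcribed, DNA-blocked target RNA library […] was mixed with 1 nM active affinity-purified piRISC holding one synthetic guide, with or without 500 nM GTSF1 partner protein, at 33 °C in HEPES–potassium acetate buffer for 0–8 or 0–960 min. Counts were normalised to depth and to weakly complementary targets, three trials were pooled, and k3 was capped at 0.0001 min^-1. A burst-and-steady-state fit gave the pre-steady-state cleavage rate.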
# [1] = auxiliary factor: 500 nM mouse GTSF1
# [2] = auxiliary factor: none (no GTSF1)
# 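Further: 1 nM active piRISC with 0.1 nM target library at 33 °C single turnover.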
sequence,measurement,setting,value
UCGACCUACAGCUUGCAUAGUACUUAGUUA,pre-steady-state target cleavage rate,[1],1.03 ± 0.037
same,pre-steady-state target cleavage rate,[2],0.062 ± 0.01
UCCUGCUACAGCUUGCAUAGUAUUUAGCUUA,pre-steady-state target cleavage rate,[1],0.193 ± 0.029
same,pre-steady-state target cleavage rate,[2],0.0114 ± 0.0037
UCGACCUACAGCUUGCAUAGAAAUUAGUUA,pre-steady-state target cleavage rate,[1],0.248 ± 0.032
same,pre-steady-state target cleavage rate,[2],0.0042 ± 0.0022
AGGACCUACAGCUUGCAUAGUAAUUACUUA,pre-steady-state target cleavage rate,[1],0.375 ± 0.057
same,pre-steady-state target cleavage rate,[2],0.023 ± 0.0064
UCCACCUACAGCUUGCAUAGUAUUUGGUUA,pre-steady-state target cleavage rate,[1],0.555 ± 0.038
same,pre-steady-state target cleavage rate,[2],0.0358 ± 0.0079
UCCUGGUACAGCUUGCAUAGUUUUUAGUUA,pre-steady-state target cleavage rate,[1],0.206 ± 0.031
same,pre-steady-state target cleavage rate,[2],0.0254 ± 0.0062
AGGACCUAGAGCUUGCAUACUAUUUAGUUA,pre-steady-state target cleavage rate,[1],0.134 ± 0.013
same,pre-steady-state target cleavage rate,[2],0.0182 ± 0.0037
UCCUGGAACAGCUUGCAUAGUAUUUUAGUUA,pre-steady-state target cleavage rate,[1],0.875 ± 0.046
same,pre-steady-state target cleavage rate,[2],0.0159 ± 0.003
UCCUCCUACAGCUAGCAUUGUAUUUAGUUA,pre-steady-state target cleavage rate,[1],0.592 ± 0.023
same,pre-steady-state target cleavage rate,[2],0.00657 ± 0.002
UCCACCUACAGCUUGCAUAGUAUUUAGUUU [g2:g27:cont:t1U],pre-steady-state target cleavage rate,[1],1.1 ± 0.04
same,pre-steady-state target cleavage rate,[2],0.0848 ± 0.018
AGGACCUACAGGUUGCAUAGUAUUUACAAA,pre-steady-state target cleavage rate,[1],0.373 ± 0.054
same,pre-steady-state target cleavage rate,[2],0.00359 ± 0.0023
UCCUGCUACAGCUUGCAUAGUAUUUAGUCUA,pre-steady-state target cleavage rate,[1],0.156 ± 0.025
same,pre-steady-state target cleavage rate,[2],0.00747 ± 0.0028
UCCUGCUACUGCUUGCAUAGUAUUUAGUUA,pre-steady-state target cleavage rate,[1],0.559 ± 0.047
same,pre-steady-state target cleavage rate,[2],0.04 ± 0.006
UCCACCUACAGCUUGCAAAGUAUUUAGUUA,pre-steady-state target cleavage rate,[1],0.937 ± 0.044
same,pre-steady-state target cleavage rate,[2],0.0318 ± 0.0069
UCCUGGAUGUCCUAUGCAUAGUAUUUAGUUA,pre-steady-state target cleavage rate,[1],0.0196 ± 0.0047
same,pre-steady-state target cleavage rate,[2],0.00329 ± 0.0021
UCCACCUAGAGCUUGCAUAGUAUUUACUUA,pre-steady-state target cleavage rate,[1],0.358 ± 0.049
same,pre-steady-state target cleavage rate,[2],0.0215 ± 0.0036
UCCUGCUACUGCUUGCAUAGUAUUUAGAAA,pre-steady-state target cleavage rate,[1],0.134 ± 0.023
same,pre-steady-state target cleavage rate,[2],0.00379 ± 0.0024
UGGACCUACACGAUGCAUAGUAUUUAGUUA,pre-steady-state target cleavage rate,[1],0.78 ± 0.051
same,pre-steady-state target cleavage rate,[2],0.00583 ± 0.0026
UCCUCCUACAGCUUGCAUAGUUUAUAGUUA,pre-steady-state target cleavage rate,[1],0.115 ± 0.017
same,pre-steady-state target cleavage rate,[2],0.0104 ± 0.002
UCCUGGAACAGCUUGCAUAGUUUUUAGAAA,pre-steady-state target cleavage rate,[1],0.149 ± 0.034
same,pre-steady-state target cleavage rate,[2],0.00541 ± 0.0038
UCGACCUUGUGCUUGCAUAGUAUUUACAAA,pre-steady-state target cleavage rate,[1],0.101 ± 0.018
same,pre-steady-state target cleavage rate,[2],0.00294 ± 0.0017
UCCUCCUACAGCUUGCAUAGUAUUUGGUUA,pre-steady-state target cleavage rate,[1],0.87 ± 0.029
same,pre-steady-state target cleavage rate,[2],0.034 ± 0.0071
UGGACCUACAGUUGCAUAGUAUUUAGUUA,pre-steady-state target cleavage rate,[1],1.06 ± 0.094
same,pre-steady-state target cleavage rate,[2],0.00944 ± 0.0032
UCCUCCUACAGCUUGCAUAGUUUUUAGAAA,pre-steady-state target cleavage rate,[1],0.235 ± 0.042
same,pre-steady-state target cleavage rate,[2],0.00418 ± 0.0021
UCCUGGAAGUGCUUGCAUAGUAUUUAGUUA,pre-steady-state target cleavage rate,[1],0.393 ± 0.025
same,pre-steady-state target cleavage rate,[2],0.0331 ± 0.0076
UCGUGGUACAGCUUGCAUAGUAUUUAGAAA,pre-steady-state target cleavage rate,[1],0.305 ± 0.029
same,pre-steady-state target cleavage rate,[2],0.00755 ± 0.0023
UCCUGGAUGAGCUUGCAAAGUAUUUAGAUA,pre-steady-state target cleavage rate,[1],0.368 ± 0.05
same,pre-steady-state target cleavage rate,[2],0.0124 ± 0.0051
UCCUGGAACAGCUAGCAUACUAUUUAGUUA,pre-steady-state target cleavage rate,[1],0.282 ± 0.027
same,pre-steady-state target cleavage rate,[2],0.0108 ± 0.0032
UCCUGGAUGUCGAACGUAAGUAUUUUAGUUA,pre-steady-state target cleavage rate,[1],< 0.0001
same,pre-steady-state target cleavage rate,[2],< 0.0001
UCCUGGAUGUCCGUUGCAUAGUAUUUAGUUA,pre-steady-state target cleavage rate,[1],0.013 ± 0.0052
same,pre-steady-state target cleavage rate,[2],0.00402 ± 0.003
AGGACGUACAGCUAGCAUAGUAUUUAGUUA,pre-steady-state target cleavage rate,[1],0.986 ± 0.08
same,pre-steady-state target cleavage rate,[2],0.0283 ± 0.0061
UCGACGAACAGCUUGCAUAGUAUUUAGUAA,pre-steady-state target cleavage rate,[1],0.962 ± 0.062
same,pre-steady-state target cleavage rate,[2],0.0577 ± 0.013
UCCACCUACAGGUUGCAUAGUAUUUAGUAA,pre-steady-state target cleavage rate,[1],0.866 ± 0.1
same,pre-steady-state target cleavage rate,[2],0.0134 ± 0.0028
UGGACCUACAUGCUUGCAUAGUAUUUAGUUA,pre-steady-state target cleavage rate,[1],0.925 ± 0.054
same,pre-steady-state target cleavage rate,[2],0.0601 ± 0.013
UGGACCUACAGCCUUGCAUAGUAUUUAGUUA,pre-steady-state target cleavage rate,[1],1.21 ± 0.081
same,pre-steady-state target cleavage rate,[2],0.0496 ± 0.0085
UCGACCUACAGCUUGCAAAGUAUUUUCAAA,pre-steady-state target cleavage rate,[1],0.194 ± 0.026
same,pre-steady-state target cleavage rate,[2],0.00273 ± 0.0026
UCCUGGUACAGCUUGCUUAGUAUUUUGUUA,pre-steady-state target cleavage rate,[1],0.241 ± 0.042
same,pre-steady-state target cleavage rate,[2],0.019 ± 0.0045
UCCUGGAUCAGCUAGCAUAGUAUUUUGUUA,pre-steady-state target cleavage rate,[1],0.637 ± 0.044
same,pre-steady-state target cleavage rate,[2],0.00702 ± 0.0024
AGGACCUACAGCUGUGCAUAGUAUUUAGUUA,pre-steady-state target cleavage rate,[1],1.29 ± 0.063
same,pre-steady-state target cleavage rate,[2],0.0583 ± 0.012
UCCUCCUACAGGUUGCAUAGUAUUUAGUUA,pre-steady-state target cleavage rate,[1],0.963 ± 0.043
same,pre-steady-state target cleavage rate,[2],0.0283 ± 0.0052
UGGACCUACUGCUAGCAUAGUAUUUAGUUA,pre-steady-state target cleavage rate,[1],1.3 ± 0.075
same,pre-steady-state target cleavage rate,[2],0.032 ± 0.0066
UCCUCCUACACCUUGCAUACUAUUUAGUUA,pre-steady-state target cleavage rate,[1],0.306 ± 0.044
same,pre-steady-state target cleavage rate,[2],0.0212 ± 0.0034
AGGAGCUACAGCUUGCAUAGUAUUUUGUUA,pre-steady-state target cleavage rate,[1],0.891 ± 0.061
same,pre-steady-state target cleavage rate,[2],0.0672 ± 0.014
UCCUCCUACAGCUUGCAUAGUAUUUCGUUA,pre-steady-state target cleavage rate,[1],0.503 ± 0.044
same,pre-steady-state target cleavage rate,[2],0.04 ± 0.0087
UCCUGCUAGAGCUUGCAUAGUAUUUACUUA,pre-steady-state target cleavage rate,[1],0.227 ± 0.038
same,pre-steady-state target cleavage rate,[2],0.012 ± 0.0029
UCCUGCUACAGGUUGCAUAGUAUUUACUUA,pre-steady-state target cleavage rate,[1],0.192 ± 0.044
same,pre-steady-state target cleavage rate,[2],0.0127 ± 0.0038
UCGACCUACAGCUUGGAUAGUAUUUACUUA,pre-steady-state target cleavage rate,[1],0.491 ± 0.046
same,pre-steady-state target cleavage rate,[2],0.046 ± 0.0086
AGGACCUACAGCUUGGAUAGUUUUUAGUUA,pre-steady-state target cleavage rate,[1],0.388 ± 0.016
same,pre-steady-state target cleavage rate,[2],0.0281 ± 0.0067
UCCACGAUCAGCUUGCAUAGUAUUUAGAAA,pre-steady-state target cleavage rate,[1],0.444 ± 0.044
same,pre-steady-state target cleavage rate,[2],0.00814 ± 0.0028
AGGACCUACAGCUUGCAUAGUAAAUAGUAA,pre-steady-state target cleavage rate,[1],0.402 ± 0.06
same,pre-steady-state target cleavage rate,[2],0.00431 ± 0.0033
UCGACGUACAGCUUCCAUAGUAUUUAGUUA,pre-steady-state target cleavage rate,[1],0.0527 ± 0.011
same,pre-steady-state target cleavage rate,[2],0.00418 ± 0.0013
UCGACCUACACCUUGCAUAGUAUUUUGUUA,pre-steady-state target cleavage rate,[1],0.618 ± 0.081
same,pre-steady-state target cleavage rate,[2],0.0282 ± 0.0042
AGGUCCUACAGCUUGCAUAGUAUUUUCAAA,pre-steady-state target cleavage rate,[1],0.406 ± 0.066
same,pre-steady-state target cleavage rate,[2],0.00558 ± 0.0037
UCCUGGUACAGCUUGCAUGUAUUUAGUUA,pre-steady-state target cleavage rate,[1],0.14 ± 0.015
same,pre-steady-state target cleavage rate,[2],0.00745 ± 0.0029
AGGACCUUGUGCUUGCAUAGUAUUUAGUUA,pre-steady-state target cleavage rate,[1],0.869 ± 0.046
same,pre-steady-state target cleavage rate,[2],0.0654 ± 0.012
UCCUGGAACUGCUUGCAUAGUAUUUUGUUA,pre-steady-state target cleavage rate,[1],0.334 ± 0.027
same,pre-steady-state target cleavage rate,[2],0.014 ± 0.0033
UCCACCUACAGCUUGCAUAGUAUUUAGUCA,pre-steady-state target cleavage rate,[1],0.565 ± 0.052
same,pre-steady-state target cleavage rate,[2],0.0355 ± 0.01
UCCUCCUACAGCUUGCAUACUAUUUUGUUA,pre-steady-state target cleavage rate,[1],0.164 ± 0.017
same,pre-steady-state target cleavage rate,[2],0.0127 ± 0.0026
UCCACUACAGCUUGCAUAGUAUUUAGUUA,pre-steady-state target cleavage rate,[1],1.07 ± 0.044
same,pre-steady-state target cleavage rate,[2],0.0602 ± 0.0096
AGGACCUACAGCUUCGCAUAGUAUUUAGUUA,pre-steady-state target cleavage rate,[1],1.27 ± 0.071
same,pre-steady-state target cleavage rate,[2],0.0296 ± 0.0087
